Measurements as given in the supplement of paper PMC11417369.
± gives the standard deviation of the averaged measurements. Some of the results follow.

These sequences were tested on PfAP2-EXP AP2 domain (GST-tagged) (assay: gcPBM binding intensity (ln(normalized median fluorescence intensity)); higher = stronger DNA binding).
How it was run: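 After 1 h on an Agilent 4 × 180k array of primer-extended double-stranded 36-bp intergenic genomic probes and negative controls, bound GST-tagged P. falciparum DNA-binding domains were detected with Alexa488 anti-GST antibody and scanned at 488 nm. The domains had been expressed in E. coli, and binding took place in 1× PBS with 1% milk, 0.2 mg/ml BSA, 0.5% salmon testes DNA and 0.03% Triton X-100. Binding intensity is the highest Masliner-normalised natural-log median intensity across replicate spots of either probe orientation.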

| Sequence | gcPBM binding intensity (ln) |
| --- | --- |
| TATATACCTATATACACACACATATATAAATAAATA [CACACA_site7341] | 8.53 ± 0.63 |
| TATTTCTGATTACATACACACATATACAGATATGAC [CACACA_site7490] | 8.52 ± 0.4 |
| TTTGTATTGTGCAGATGTACATTATAATATTGGATT [XGTACX_site5033] | 8.68 ± 0.35 |
| ATTACATACGAGCACACGTAAAAGTATAATATAAAA [GTGCAC_negctrl_site446] | 8.57 ± 0.37 |
| TATGTTCCATTTTTTGGTACACATACAATAACTGCT [XGTACX_site2256] | 8.32 ± 0.26 |
| TTATATATAATATATACACACACATGTATATATAAA [CACACA_site8603] | 8.3 ± 0.34 |
| AACAAATACAAAGAATAGTCATCTGAATGGTGTTAT [GTGCAC_negctrl_site685] | 8.54 ± 0.43 |
| ATAATGATTATAATATGTACATAAATATATATATTA [XGTACX_site5029] | 8.61 ± 0.42 |
| AAACAATACATATATTGTACATATATTATATTATAT [XGTACX_site8136] | 8.43 ± 0.36 |
| AAAAAATCAAAACACACACACACACCCAAAAAAAAA [CACACA_site1444] | 8.52 ± 0.45 |
| TTAGAAATTCATTTTACACACAATTCAAAAGAATGT [CACACA_site2104] | 8.04 ± 0.45 |
| AATTTGAAATAAAGTAGTACAGTATATAAAAATATA [XGTACX_site128] | 8.58 ± 0.38 |
| CGGATCTATAAGTGTACACAATCTAGCGAAAAGTTT [CACACA_site4932] | 8.72 ± 0.55 |
| ATAAAATAAAAAAGTAGTACACACTTCACGATATTT [XGTACX_site8289] | 8.67 ± 0.23 |
| ATAATTATAAAATAAACACACATATATATTTATATG [CACACA_site440] | 8.27 ± 0.35 |
| AATAAATAAACAAATTAACACACAGAATTTTTTTTT [CACACA_site8485] | 8.45 ± 0.59 |
| ATTATGTTATATATATGTACATATATAATGTTCATA [XGTACX_site6184] | 8.47 ± 0.28 |
| AAAAATAATGCACATATATATAATATGTATATGTAT [CACACA_negctrl_site443] | 8.95 ± 0.33 |
| ATGTTTACATATTAGGGTACATAATAAATTGCATAT [XGTACX_site6712] | 8.46 ± 0.36 |
| TTATTGTAAATATATGCATGTGCAAAATGAAAAAAA [TGCATGCA_site399] | 9.07 ± 0.18 |
| TTTTAAACAAGACACACACACATATATATATATATA [CACACA_site925] | 10.2 ± 0.35 |
| GAATGTATAAAATGAACACACGCCAAATTAAATGAA [CACACA_site3044] | 8.56 ± 0.45 |

| Sequence | gcPBM binding intensity (ln) |
| --- | --- |
| CATGTATTTTATATTACACACTAATATTATATATAT [CACACA_site1508] | 8.48 ± 0.32 |
| ATATTAGATTAATTTACACACAGAAAATGAGATTTT [CACACA_site541] | 8.21 ± 0.36 |
| CCAACATATATTATCACACACATATATATATATATA [CACACA_site2016] | 10.2 ± 0.22 |
| AATAAACAAATATGTACACACATATACCTATAAATA [CACACA_site7358] | 8.48 ± 0.34 |
| TAGAGTATATATAAATGTACATATTTTATGCTAATT [XGTACX_site7821] | 8.47 ± 0.24 |
| AAAAAATTAAATAATTACAAAAAAATAAAATAAAAA [GTGCAC_negctrl_site638] | 8.49 ± 0.47 |
| TATGGAAGAAAATATACACACAAAAAAAAAAAATGG [CACACA_site4924] | 8.65 ± 0.46 |
| ATGATTTTTTTTATTTTTTAGCTAGAGCTAGCTTAT [CACACA_negctrl_site433] | 8.44 ± 0.39 |
| AACACTCAAAAAAATTTAAATAAAAAAAAAAAAAAA [CACACA_negctrl_site680] | 8.11 ± 0.63 |
| TATGAATGCTTTTATGCACACGTACAAAAATATTAT [CACACA_site8851] | 8.53 ± 0.22 |
| ATATGTTAAAAATTCACACAAAAAAGTATACAGATA [CACACA_site4179] | 8.86 ± 0.46 |
| TTACCTATTCTAAAATGTACACATTATATATGTGCT [XGTACX_site5776] | 8.53 ± 0.3 |
| ACATGTTTCATATGTTGTACTAACTTAAATATAAAT [XGTACX_site6412] | 8.5 ± 0.31 |
| TTGTACATCTTTTGCACACGTAATGTTATTAAAATA [CACACA_site4827] | 8.79 ± 0.26 |
| TGTATATTTGTTGTTACACACATATATTTTTTTTTT [CACACA_site128] | 8.53 ± 0.3 |
| TTATAACAAAAAATTAAAGAAAGAGAATAAGTGAAA [CACACA_negctrl_site975] | 8.83 ± 0.45 |
| AGGTCCTACACCAATAAATATCATATATATATTATA [CACACA_negctrl_site568] | 8.22 ± 0.37 |
| TTAACTATAATAAAATGTACATATGTAACATATATA [XGTACX_site7790] | 8.41 ± 0.34 |
| TTGATATCTTTTTTTTGTACATATATTTATAAGTAA [XGTACX_site3538] | 8.74 ± 0.48 |
| TTTTTTTAAATTATATGTACATAATTTTAATTTTAT [XGTACX_site5086] | 8.33 ± 0.28 |
| AAAATATAAGCCACTACACACATATATAAATGTATA [CACACA_site2639] | 8.35 ± 0.43 |
| TTTTAGAGTGATATATATTAACTTTTAATAAAAAAA [CACACA_negctrl_site611] | 7.89 ± 0.3 |

| Sequence | gcPBM binding intensity (ln) |
| --- | --- |
| GTTATACACATATATACACACATATGTAGATATATA [CACACA_site7529] | 8.48 ± 0.33 |
| TAAAGTACAGGAGTAAATTGAAAAAAAAAAAAAAAA [CACACA_negctrl_site1410] | 8.29 ± 0.4 |
| ATAAATAAATAAATACGTACATATATATATATATAT [XGTACX_site8838] | 9.98 ± 0.38 |
| TATAATATTCCTTTTTAACACACATATGAACAAATA [CACACA_site7932] | 8.48 ± 0.47 |
| ATACATATATTTTTATGTACATATATTTTTTTTGTA [XGTACX_site4546] | 8.52 ± 0.2 |
| TATTTTTTTTGTCATATATAAGAAACGCTCTTCTTT [TGCATGCA_negctrl_site127] | 8.49 ± 0.56 |
| ATATTTATATTTTCATGTACGTATTTTTATATATAT [XGTACX_site8478] | 8.715 ± 0.021 |
| TGCATTATATTAAATTTTTTATTTGTTGATGTTATA [GTGCAC_negctrl_site371] | 8.39 ± 0.26 |
| TGAAATAAAATTTGTACACACATATTTATTTATATA [CACACA_site6421] | 8.19 ± 0.12 |
| AAATAAAAGATATTTTTACACACTTTTGATGAGATC [CACACA_site9000] | 8.16 ± 0.39 |
| ATATATATACATATAACACACACATATATATATATA [CACACA_site8827] | 10.1 ± 0.31 |
| TTGTATTTATTTATGGGAGGATTATAATCATTGTAG [GTGCAC_negctrl_site268] | 8.49 ± 0.52 |
| TAATTCACATTTTATACACACATTCGAACCTTTTTT [CACACA_site3341] | 8.81 ± 0.49 |
| TATAGATATATACGGTGTACATACATAAAAAAAAAA [XGTACX_site1648] | 8.54 ± 0.35 |
| ATTTTTATTAGTTATTGTACTTATTATTTATTAATT [XGTACX_site2568] | 8.66 ± 0.38 |
| TATAAAGAAATCATTACACACAAATAAATACATACA [CACACA_site2675] | 8.65 ± 0.59 |
| TATAGTCAACTAGTCACACATATAATTATATATATA [CACACA_site5872] | 8.9 ± 0.042 |
| ATATTAATTTCTCATGCATGTTCTTCCCAATTGTAA [TGCATGCA_site425] | 9.09 ± 0.24 |
| GGTTAGACGAAATATACATGCAATGGAAAATAAGTT [TGCATGCA_site23] | 9.42 ± 0.24 |
| TCATCATGTATGTACACACATACATATATTATGTAC [CACACA_site1386] | 8.5 ± 0.3 |
| TATAAGTAGATAAGGGTGCACAATATAAATATATAG | 9.9 ± 0.97 |
| CTTTTTGAAATATTAACACACATTTTGTTAATGAAT [CACACA_site6087] | 8.24 ± 0.38 |

| Sequence | gcPBM binding intensity (ln) |
| --- | --- |
| CACAAGAAAATTCACACACACACATATATATATATA [CACACA_site3880] | 10.1 ± 0.27 |
| TCCTTAATTCAAAAAATAATATCTTATATTTCAAAT [CACACA_negctrl_site1592] | 7.95 ± 0.26 |
| GGAATAAAGACAGCACGTACATATCTTACGAAGCTC [XGTACX_site3918] | 8.46 ± 0.36 |
| GGTTCATTAAAGTGTACACATAAATACCGTAACATT [CACACA_site6002] | 8.73 ± 0.35 |
| CTAAGGTATGATTAATCACACACATAAATATATATA [CACACA_site8847] | 8.67 ± 0.21 |
| AGAATAAGAATTATTAGTACTTATAAATATTATATT [XGTACX_site7228] | 8.21 ± 0.38 |
| GTAAATACACATATGTGTACATATATATATATATAT [XGTACX_site3696] | 10.2 ± 0.35 |
| TAATTTAAAATATATAGTACACACGTGAACACAAAT [XGTACX_site792] | 8.89 ± 0.45 |
| CTATTACATTAAATGTGTACATATATATATATATAT [XGTACX_site5233] | 10.1 ± 0.28 |
| GTGGCTACTATATATTGTACGATATTATATATATAC [XGTACX_site8376] | 8.62 ± 0.28 |
| ATCGAAATTTTAGAATATATATGATGTTACTTAAGT [GTGCAC_negctrl_site611] | 8.44 ± 0.36 |
| TAAAATATCATAGATAGTACATATAACGTTTTATAT [XGTACX_site5666] | 8.44 ± 0.33 |
| GTAAGAATATTTATAAATGTATAATTTGTATTATTT [GTGCAC_negctrl_site667] | 8.12 ± 0.43 |
| CATGACATAAAAAATATACACACTATAATATATATA [CACACA_site1402] | 8.78 ± 0.13 |
| ATGAAAATTTATATTGCACACATAGGGAATAAAAAA [CACACA_site8667] | 8.87 ± 0.28 |
| AAATATATTATATTTAGTACGCATATATAATATGCA [XGTACX_site4835] | 8.21 ± 0.25 |
| AGTTAATTAATAGGCACACATATATATGTATAAATA [CACACA_site523] | 8.91 ± 0.43 |
| ACCATATAAATAAACACACACACACCCATATATATA [CACACA_site2321] | 8.74 ± 0.4 |
| TATATATCTATATTTACACACAGTTACTATGTAGAT [CACACA_site7532] | 8.34 ± 0.34 |
| ATAATATGTATAATCACACATTTTTCTTTTAAGACA [CACACA_site5297] | 8.23 ± 0.4 |
| GTTAAACTTAATATCGGTACACACACAAGATAAGAA [XGTACX_site1660] | 8.82 ± 0.57 |
| ATGGATTATACGTGCACACATATATACAAATAAATA [CACACA_site640] | 9.43 ± 0.7 |
